Reference: PubChem BioAssay AID686979 (National Center for Advancing Translational Sciences (NCATS), 2013)
Several values for one entry are separate records, joined by “and”; a condition that tells them apart may be missing. Identical values can stand only once. The campaign covered roughly 420,000 compounds. About 50,000 (12%) were called active. Inconclusive results, whose numbers are uncertain, are shown with a selection of clear calls. The call rests on the fitted dose curve; in most records, active means well fitted inhibition curve with a large enough effect; inconclusive means small, poorly fitted or top-dose-only effect; inactive means flat fitted curve, though single readings scatter. Potencies of inconclusive entries are left out as doubtful fits.

Assay: qHTS for Inhibitors of human tyrosyl-DNA phosphodiesterase 1 (TDP1): qHTS in cells in presence of CPT; further: nearly all actives have a fitted effect of over 55% in size
Conditions: chicken DT40 Tdp1-/-;hTDP1 cells + 20 nM CPT, ATP luminescence, 48 h; activity change, negative = growth inhibition: at 46.2 µM (top of the series) unless noted
Summary of the method: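 Chicken DT40 Tdp1-/- cells stably complemented with human TDP1 were seeded at 400 cells/well in medium containing 20 nM camptothecin, exposed to pin-transferred compounds, and grown at 37 °C for at least 48 hr. Viability was read as ATP luminescence.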
On the % scale 0 is the no-effect control and ±100 the full control effect; potency means the concentration at half of the fitted maximal effect; tags describe the fitted curve by direction and shape.

Structure (SMILES) | activity change, negative = growth inhibition | Potency
CCOCC(=O)Nc1cccc(-c2nc3cccnc3s2)c1C | inactive: -6.62% | 
COc1ccc(OC)c(Nc2ncnc3c2nc2n3CCCC2)c1 |  | active: 9.2 µM
C/C(=N\NC(=O)c1nnn(-c2nonc2N)c1-c1ccccc1)c1ccccc1O |  | active: 2.31 µM
O=C(/C=C/c1ccccc1)NC(=S)Nc1ccccc1C(=O)NC1CCCCC1 |  | inconclusive [inhibitor, single point]
CC(C)c1ccc(NC(=O)NCc2ccc3c(c2)OCO3)cc1 |  | inconclusive [inhibitor, single point]
COc1cc(CCNC(=O)c2ccc3c(c2)c(C)c(C)n3Cc2cccc(C)c2)cc(OC)c1OC |  | active: 7.31 µM
Cc1cc(C)c(S(=O)(=O)Nc2ccc(N3CCOCC3)cc2)c(C)c1 |  | inconclusive [inhibitor, single point]
COc1cc(O)c2c(=O)c3c(OC)c(O)ccc3oc2c1 |  | inconclusive [inhibitor, single point]
COc1cc(C(=O)NC(=S)Nc2cccc(-c3cc4ccccc4oc3=O)c2)cc(OC)c1OC |  | inconclusive [inhibitor, single point]
CC1CCN(c2ccc(NC(=O)C3CCCN3S(=O)(=O)c3ccc(F)cc3)cc2)CC1 (stereo not given) |  | active: 18.4 µM
CC(C)(C)NC(=O)C(=O)NNC(=O)c1cccc([N+](=O)[O-])c1 | inactive: 19.1% | 
Cc1c(NC(=O)c2cc3ccccc3o2)cccc1-n1cnnn1 |  | inconclusive [inhibitor, single point]
CCOC(=O)C1(Cc2cccc(OC)c2)CCN(Cc2cccc(OCC)c2O)CC1 |  | active: 23.1 µM
COc1ccccc1CNS(=O)(=O)c1ccc2c(c1)NC(=O)CS2 | inactive: -27.9% | 
COc1ccc(N2CCN(S(=O)(=O)c3ccc(OC)cc3)CC2)cc1 |  | inconclusive [inhibitor, single point]
O=C1NC(=S)N/C1=C/c1cc([N+](=O)[O-])ccc1O | inactive: -27.5% | 
O=c1cc(N2CCCC2)c2ccccc2o1 | inactive: 8.71% | 
CC1(C(=O)OCC(=O)Nc2nnc(-c3ccccc3)o2)CC1(Cl)Cl (stereo not given) |  | inconclusive [inhibitor, single point]
COc1ccccc1N(C(=O)c1snc(C(N)=O)c1N)C(C(=O)NCCC(C)C)c1ccco1 (stereo not given) |  | inconclusive [inhibitor, partial curve]
CN1C(=O)/C(=C\c2ccc(N(C)C)cc2)OC1=S |  | inconclusive [inhibitor, single point]
CCCc1ccc(OCCNC(=O)c2ccco2)cc1 | inconclusive: -35% [inhibitor] | 
CSCCC1NC2(C(=O)Nc3c(C)cc(Cl)cc32)[C@@H]2C(=O)N(C3CCCC3)C(=O)[C@H]12 (stereo not given in full) |  | inconclusive [inhibitor, partial curve, poor fit]
COc1ccc(CN2CCN(C(=O)c3cccs3)CC2)c(OC)c1OC | inactive: -23.9% | 

Structure (SMILES) | activity change, negative = growth inhibition | Potency
O=C(CSc1n[nH]c(-c2ccco2)n1)Nc1ccc(Br)cc1 |  | inconclusive [inhibitor, single point]
CN(C)S(=O)(=O)c1cccc(C(=O)Nc2ccc(Cl)cn2)c1 |  | inconclusive [inhibitor, partial curve, poor fit]
Cc1ccc(NC(=S)NCc2ccccc2)cc1S(=O)(=O)N1CCCCC1 |  | inconclusive [inhibitor, single point]
COc1ccc(/C=C2\SC(=O)N(CCNC(=O)C3=COCCO3)C2=O)cc1 |  | active: 1.3 µM
Cc1nn(-c2ccccc2)c2c1cc1c(=O)n(C)c(=O)nc-1n2-c1cccc(Cl)c1 | inactive: -0.0558% | 
O=C(COC(=O)C(Cc1c[nH]c2ccccc12)NC(=O)c1ccc(Cl)cc1)c1ccc(Cl)cc1 (stereo not given) |  | inconclusive [inhibitor, single point]
Oc1ccc(-c2nc(-c3ccccc3)c(-c3ccc(Br)cc3)[nH]2)cc1 |  | inconclusive [inhibitor, single point]
Cc1c(C(=O)OC(C)C)sc2nc[nH]c(=O)c12 |  | inconclusive [inhibitor, single point]
COc1cc(NC(=O)CN2c3ccccc3CC2C)cc(OC)c1OC (stereo not given) |  | inconclusive [inhibitor, single point]
CCCOC(=O)C1C2C=CC(C3CC23)C1C(=O)OCC(=O)c1ccccc1 (stereo not given) |  | inconclusive [inhibitor, single point]
Cc1cc(C)c(NC(=O)CCn2c(=O)c3cccn3c3ccccc32)c(C)c1 |  | inconclusive [inhibitor, single point]
CC(C)(C)[C@H]1CCC(=O)N([C@H](CSc2ccc(Br)cc2)Cc2ccccc2)CC1 |  | active: 11.2 µM and active: 18.4 µM
CCOc1ccc(-n2cnc3sc4c(c3c2=O)CCCC4)cc1 |  | inconclusive [inhibitor, single point]
Cc1cccc(Nc2nnc(SCC(=O)N(C)C3CCS(=O)(=O)C3)s2)c1C (stereo not given) | inactive: -19.5% | 
COc1ccc(N2CCN(C(CNC(=O)C3CCCCC3)c3ccco3)CC2)cc1 (stereo not given) |  | inconclusive [inhibitor, single point]
O=C(NC1CCCCC1)C(c1cccs1)N(CCCN1CCOCC1)C(=O)c1ccc(-c2ccccc2)[nH]1 (stereo not given) |  | inconclusive [inhibitor, single point]
COc1ccc(NC(=O)C(OC)c2ccccc2)cc1Cl (stereo not given) | inactive: -0.69% | 
COc1ccccc1NC(=O)C1CCN(S(=O)(=O)c2ccc3[nH]c4c(c3c2)CCCCC4)CC1 |  | inconclusive [inhibitor, partial curve]
COc1ccc(-c2cc(=O)c3cc(OCC(=O)OC(C)C)ccc3o2)cc1 | inactive: 9.06% | 
CCCNC(=O)C(=O)Nc1ccc2c(c1)N(S(=O)(=O)c1cccs1)CCC2 |  | active: 14.6 µM
Cc1sc2ncnc(SCC(=O)Nc3nc(-c4ccc(F)c(F)c4)cs3)c2c1C | inactive: -10.8% | 
CCOc1ccc(CCn2c(-c3ccco3)nc3ccccc3c2=O)cc1OCC |  | active: 1.3 µM
